The campaign covered roughly 340,000 compounds. About 12,000 (3.5%) were called active. The inconclusive results got no clear call from the source; some entries with a clear call stand among them for comparison. Calls come from the whole dose curve; as a rule, active = well fitted inhibition curve with a large enough effect; inconclusive = small, poorly fitted or top-dose-only effect, or another doubt; inactive = no such curve, though single readings can be large or run the other way. No potency is given beside an inconclusive call; the fits are too rough.
Test: qHTS Assay for Inhibitors of Hepatitis C Virus (HCV)
Details: Huh7.5.1 HCVcc-Cre (HCVcc is cell-culture hepatitis C virus) infection, luciferase reporter, 44 h; series mostly up to 41.8 µM
Summary of the method: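 Cells (1,000/well) were plated 4 h before compound, then infected with HCVcc-Cre virus (~0.5 moi). After 44 h further culture, infection was read as luciferase luminescence following a 15 min substrate incubation at room temperature.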
Potency is the fitted concentration of half-maximal effect; tags give direction and shape of the fitted curve.

Compound | Potency
Cc1ccc(-c2csc3nc[nH]c(=O)c23)cc1 | inactive
Cc1ccc(NC(=O)c2ccc(OC(=S)N3CCOCC3)cc2)cc1 | inconclusive [inhibitor, single point]
CCOC(=O)N1CCN(C(=O)CSc2nc(=O)n3ccc(C)cc3n2)CC1 | inactive
COc1cc(C(=O)N/N=C/c2cc([N+](=O)[O-])cs2)cc(OC)c1OC | inconclusive [inhibitor, full curve, poor fit]
C=CCOCCn1[nH]c2ccccc2c1=O | inactive
O=C1NN(c2ccccc2)C(=O)/C1=C\c1ccccc1 | inactive
C/C(Cc1ccccc1)=N\NC(=O)CNC(=O)c1ccc(Cl)cc1Cl | inactive
CCCCCOc1ccc(C(=O)CCN2CCOCC2)cc1 | inactive
COc1ccc(C(=O)Nc2ccccc2)cc1NC(=O)c1ccc([N+](=O)[O-])cc1 | inconclusive [inhibitor, partial curve]
O=c1c2ccccc2oc2ccc(NCCCn3ccnc3)cc12 | inconclusive [inhibitor, partial curve]
CCc1sc(C(=O)Nc2cccc(-n3cnnn3)c2)cc1C | inconclusive [inhibitor, partial curve]
CC1CN(C(=O)c2ccc(CNS(=O)(=O)c3cccc(C(F)(F)F)c3)cc2)CC(C)O1 (stereo unspecified) | inconclusive [inhibitor, single point]
N#CC(C#N)=C1C=CC=CN1/C(=C\c1ccco1)C(=O)c1ccc(Cl)cc1 | inconclusive [inhibitor, partial curve]
COc1ccc(NC(=O)Nc2ccc(Cc3ccncc3)cc2)c(OC)c1 | inconclusive [inhibitor, full curve, poor fit]
NC1=NC2CS(=O)(=O)CC2S1 (stereo unspecified) | inactive
CC(C)(C)C1CCc2onc(C(=O)Nc3cccc(O)c3)c2C1 (stereo unspecified) | inconclusive [inhibitor, partial curve, poor fit]
CCC(C)NC(=O)c1ccc(N2CC3CC(C2)c2cccc(=O)n2C3)c(NC(=O)c2ccc(Br)o2)c1 (stereo unspecified) | inactive
COc1ccc(CN2C(=O)C(C)Nc3ncnc(N4CCN(c5ccccn5)CC4)c32)cc1 (stereo unspecified) | inconclusive [inhibitor, single point]
CCC(CC)C(=O)c1c[nH]c(C(=O)N2CCN(c3ccccc3F)CC2)c1 | inactive
Cc1cc(C)cc(OCC(=O)N(C)CC(=O)Nc2ccc(Cl)c(C(F)(F)F)c2)c1 | inconclusive [inhibitor, partial curve]
COCC(=O)NCCc1nc2ccccc2[nH]1 | inactive
Nc1c(C(=O)N2CCOCC2)sc2nc3c(cc12)CCCC3 | inactive
CC(Oc1ccc(Br)cc1)C(=O)Nc1ccc(N2CCOCC2)cc1N1CCOCC1 (stereo unspecified) | inconclusive [inhibitor, single point]
CCCN1CCN(CCCNC(=O)c2cc3c(=O)[nH]c4ccccc4c3s2)CC1 | inconclusive [inhibitor, single point]

Compound | Potency
O=[N+]([O-])c1cccc(-c2nc3ccccc3s/c2=N/O)c1 | inconclusive [inhibitor, partial curve, poor fit]
CC(C)c1ccc(NC2CCCN(C(=O)c3n[nH]c4c3CCC4)C2)cc1 (stereo unspecified) | inconclusive [inhibitor, full curve]
Nc1c(-c2cccs2)cnn1-c1nc(-c2ccc(Cl)cc2Cl)cs1 | inconclusive [inhibitor, full curve]
CCOC(=O)c1ccc(NC(=O)CSc2nnc(Cc3cccs3)n2C)cc1 | inconclusive [inhibitor, partial curve]
CC1(C)CC(=O)c2sc(NS(=O)(=O)Cc3ccccc3)nc2C1 | inactive
Cc1ccc(-c2cn3cccnc3n2)cc1NC(=O)c1c(-c2ccccc2Cl)noc1C | inconclusive [inhibitor, partial curve]
CCOc1ccc2nc(N/C(N)=N/C(=S)Nc3cccc(C)c3)nc(C)c2c1 | active: 5.62 µM
COc1ccc([C@@]2(O)c3c(ccc(CC=C(C)C)c3O)NC(=O)[C@@H]2OC)cc1 | inconclusive [inhibitor, partial curve]
Oc1ccccc1-c1nc(NCc2ccco2)c2ccccc2n1 | active: 3.16 µM
Cc1nc(-c2ccncc2)nc(NCCNc2ccc(C(F)(F)F)cn2)c1Cl | inconclusive [inhibitor, partial curve]
COc1cccc(NC(=O)C2CCN(Cc3cnn(-c4ccccc4)c3-n3cccc3)CC2)c1 | active: 11.2 µM
CC(=O)Nc1ccc(OCC(O)CN2CCN(c3cccc(Cl)c3)CC2)cc1 (stereo unspecified) | inactive
CCN(CC)c1ccc(NC(=O)c2cccc(F)c2)c(C)c1 | inconclusive [inhibitor, single point]
Cc1ccc2c(c1)CCCN2C(=O)CSc1ccccc1 | inconclusive [inhibitor, single point]
CC1Cc2ccccc2N1C(=O)COC(=O)c1ccccc1NCCO (stereo unspecified) | inconclusive [inhibitor, single point]
CC(=O)OC1CCC2(C)C(COc3ccc4ccc(=O)oc4c3)C(C)(O)CCC2C1(C)C (stereo unspecified) | inconclusive [inhibitor, single point]
N#Cc1nc(-c2cccs2)oc1N1CCN(Cc2ccccc2)CC1 | inconclusive [inhibitor, single point]
N#CCCN1CCN(C(=S)c2ccc(-c3ccc(Cl)c(Cl)c3)o2)CC1 | inconclusive [inhibitor, single point]
COc1ccc(-c2nc(-c3ccccc3)c(-c3cccs3)[nH]2)cc1OC | inconclusive [inhibitor, partial curve]
COc1ccccc1N1CCN(/N=C/c2ccc(Cl)c([N+](=O)[O-])c2)CC1 | inactive
COc1ccccc1N1CCN(Cc2ccco2)CC1 | inactive
Cc1cnn(-c2nc(-c3ccccc3)cc(-c3ccccc3)n2)c1 | active: 7.94 µM
CCCCN(CC)Cc1ccc(CNC(=O)Nc2ccc(Cl)cc2)o1 | inconclusive [inhibitor, single point]
CCn1c(=O)cc(OCC(=O)NCCCN2CCN(c3cccc(Cl)c3)CC2)c2ccccc21 | inconclusive [inhibitor, full curve]

Compound | Potency
C#CCNC(=O)C1=C[C@H](c2ccc3c(c2)OCO3)[C@@H](CCCO)[C@H](OCC)O1 | inactive
CC1CCCN(S(=O)(=O)c2ccc(S(=O)(=O)N3CCCN(Cc4ccccc4)C3)cc2)C1 (stereo unspecified) | inconclusive [inhibitor, single point]
CN1CCN(CCCNC(=O)c2cc3c(-c4ccc(Cl)cc4)nn(C)c3s2)CC1 | inconclusive [inhibitor, single point]
O=C(C[n+]1cccc(CNC(=O)c2ccc(OC(F)F)cc2)c1)c1ccccc1 | inactive
O=S(=O)(NCC1CCCO1)c1ccc(-c2ccc(Cl)cc2)cc1 (stereo unspecified) | inconclusive [inhibitor, single point]
COc1ccc(C2C(C(=O)NCc3ccccn3)CCC(=O)N2c2cc(OC)c(OC)c(OC)c2)cc1 (stereo unspecified) | inactive
O=C(Nc1cccc(S(=O)(=O)N2CCCCCC2)c1)C1CCN(C(=O)c2ccc(Cl)cc2)CC1 | inconclusive [inhibitor, single point]
CCC(=O)c1ccc(OCC(=O)Nc2ccc(N3CCOCC3)cc2N2CCOCC2)cc1 | inactive
Clc1ccc(Oc2nc(N3CCOCC3)nc(N3CCOCC3)n2)cc1 | inactive
Cc1ccc(NC2=NC3(CCCC3)N=C(N)N2)c(C)c1 | inactive
O=S(=O)(c1ccc(Br)cc1)c1cnc2ccccc2n1 | inconclusive [inhibitor, single point]
O=C(CCNS(=O)(=O)c1ccccc1C(F)(F)F)N1CCN(C(c2ccccc2)c2ccccc2)CC1 | inconclusive [inhibitor, single point]
COc1ccc(-c2cc(C(F)(F)F)nc(SCC(=O)NCc3ccco3)n2)cc1OC | inconclusive [inhibitor, single point]
COc1ccc(CCNC(=O)CN(C)S(=O)(=O)c2ccc(OC)cc2)cc1 | inconclusive [inhibitor, partial curve]
COc1cc(/C=N/O)cc(Br)c1OCc1ccc(Cl)cc1 | inconclusive [inhibitor, single point]
CCc1cc(=O)oc2cc(C)cc(OCC(=O)NC3CCN(Cc4ccccc4)CC3)c12 | inconclusive [inhibitor, partial curve]
Cc1ccc(C(=O)n2c3ccccc3c3ccccc32)cc1 | inconclusive [inhibitor, partial curve]
c1ccc2c(c1)[nH]c1c(N3CCSCC3)ncnc12 | active: 12.6 µM
CN1CCN(C(c2cccc(C(F)(F)F)c2)c2nnnn2Cc2ccccc2)CC1 (stereo unspecified) | inconclusive [inhibitor, single point]
Cc1c(/C=N/NC(=O)c2ccc3c(c2)OCO3)cnn1C | inactive
Cc1nc(-c2ccc(NS(=O)(=O)c3ccccc3)cc2)cs1 | inconclusive [inhibitor, single point]
CC(=O)c1c(C)[nH]c(C(=O)COC(=O)c2ccc(C)s2)c1C | inactive
CCCC1CC(C)(c2csc(Nc3ccc(OCC)cc3)n2)OC1=O (stereo unspecified) | inconclusive [inhibitor, partial curve]

From PubChem BioAssay AID651820 (National Center for Advancing Translational Sciences (NCATS), 2012)
